In the RNAGym collection of RNA variant scans (doi:10.1093/nar/gkz1192):
The source gives no read counts; variants with many changes may rest on few reads.

B1: CPEB3 Ribozyme (parent)
chain: UAACAGGGGGCCACAGCAGAAGCGUUCACGUCGCAGCCCCUGUCAGAUUCUGGUGAAUCUGCGAAUUCUGCUGUAUAUCUC

Variants of: B1
Assay: self-cleavage, relative activity (ratio to wild type); higher = more cleavage; in vitro, sequencing
Method in brief: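 Relative activity was defined as the cleaved/total read fraction for a variant divided by the same fraction for the unmutated ribozyme. CPEB3 self-cleaving ribozyme libraries were made by rounds of error-prone PCR, barcoded, and transcribed in vitro with T7 RNA polymerase for 5 hours at 37°C, and cleavage ran through transcription plus a 15 min DNase I step before EDTA. Illumina sequencing of template-switched reverse transcripts gave the reads, and DNA sequencing mapped the barcodes. Averages come from three batches, using variants with at least 5 reads.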

| Variant | self-cleavage |
| --- | --- |
| UAACAGGGGGCCACAGCAGAAGUAUUCACGUCGCAGCCCCUGUCAGGUUCUGGUGAAUCUGCGAAUUCUGCUGUAUAUCUC [C23U G24A A47G] | 0.19 |
| UAACAGGGGGCCACAGCAGAAGUACUCACGUCGCAGCCCCCGUCAGAUUCUGGUGAAUCUGCGAUUUCUGCGGUAUAUCUC [C23U G24A U25C U41C A65U U72G] | 0.08 |
| UAACAGGGGGCCACAGCAGAAGUGUUCACUUCGCAGCCCCUGUCAGAUUCUGGUGAAUCUGCGAAUUCAGCUGUAUAUCUC [C23U G30U U69A] | 0.05 |
| UAACAGGGGGCCACAGCAGAAGUGUUCACGUCUCAGCCCCUGUCGGAUUCUGGUGAAUCUGCGAAUUCUGCUGUAUAUCUC [C23U G33U A45G] | 0.24 |
| UAACAGGGGGCCACAGCAGAAGUGUUCACGUCUCAGCCCCUGUCAGAUUCUGGUGAAUCUGCGAAUCCUGCUGUAUAUCUC [C23U G33U U67C] | 0.08 |
| UAACAGGGGGCCACAGCAGAAGUGUUCACGUCGCAGCCCCUGUCAGAUUCUAGUGAAUCUGCGAAUUCCGCUGUAUAUCUC [C23U G52A U69C] | 0.08 |
| UAACAGGGGGCCACAGCAGAAGUGUUCACGUCGCAGCCCCUGUCAGAUUCUCGUGAAUCUGCGUAUUCUGCUGUAUAUCUC [C23U G52C A64U] | 0.13 |
| UAACAGGGGGCCACAGCAGAAGUGUUCACGUCGCAGCCCCUGUCAGAUUCUCGGGAAUCUGCGAAUUCUGCUGUAUAACUC [C23U G52C U54G U78A] | 0.34 |
| UAACAGGGGGCCACAGCAGAAGUGUUCACGUCGCAGCCCCUGUCAGAUUCUUGUGUAUCUGCGAAUUUCGCUGUAUAUCUC [C23U G52U A56U C68U U69C] | 0.27 |
| UAACAGGGGGCCACAGCAGAAGUGUUCACGUCGCAGCCCCUGUCAGAUUCUUGUGAAUCUGCGAUUUCUGCAGUAUAUCUC [C23U G52U A65U U72A] | 0.12 |
| UAACAGGGGGCCACAGCAGAAGUGUUCACGUCGCAGCCCCUGUCAGAUUCUGGUGAAUCUGCGAAUUCUACCGUAUAUCUC [C23U G70A U72C] | 0.39 |
| UAACAGGGGGCCACAGCAGAAGUGCUCACGUCGCAGCCCCUGUCCGAUUCUGGUGAGUCUGCGAAUUCCGCUGUAUAUCUC [C23U U25C A45C A57G U69C] | 0.1 |
| UAACAGGGGGCCACAGCAGAAGUGCUCACGUCGCAGCCCCUGUCAGGUUCUGGUGAAUCUGCGAAUUCUGCUGUAUAUCUC [C23U U25C A47G] | 0.11 |
| UAACAGGGGGCCACAGCAGAAGUGCUCACGUCGCAGCCCCUGUCAGGUUCCGGUGAAUCUGCGAAUUCUGCUGUAUAUCUC [C23U U25C A47G U51C] | 0.1 |
| UAACAGGGGGCCACAGCAGAAGUGCUCACGUCGCAGCCCCUGUCAGAUUCUGGUGUACCUGCGAAUCCUGCUGUAUAUCUC [C23U U25C A56U U58C U67C] | 0.1 |
| UAACAGGGGGCCACAGCAGAAGUGCUCACGUCGCAGCCCCUGUCAGAUUCUGGUGAUUCUGCGAAUUCUGCUGUAUAUCUC [C23U U25C A57U] | 0.14 |
| UAACAGGGGGCCACAGCAGAAGUGCUCACGUCGCAGCCCCUGUCAGAUUCUGGUGAUUCCGCGAAUUCUGCUGUAUAUCUC [C23U U25C A57U U60C] | 0.1 |

| Variant | self-cleavage |
| --- | --- |
| UAACAGGGGGCCACAGCAGAAGUGCUCACGUCGCAGCCCCUGUCAGAUUCUGGUGAUUCCGCGAAUUCUGCUGUAUAUAUC [C23U U25C A57U U60C C79A] | 0.05 |
| UAACAGGGGGCCACAGCAGAAGUGCUCACGUCGCAGCUCCUGUCAGAUUCUGGUGGAUCUGCGAAUUCUGCUGUAUAUCUC [C23U U25C C38U A56G] | 0.08 |
| UAACAGGGGGCCACAGCAGAAGUGUACACGUAGCAGCCCCUGUCAGGUUCAGGUGAAUCUGCGAAUUCUGCUGUAUAUCUC [C23U U26A C32A A47G U51A] | 0.17 |
| UAACAGGGGGCCACAGCAGAAGUGUACACGUCGCAGCCCCUGCCAGAUUCUGGUGAAUCUGCGAAUUCUGAUGUAUAUCUC [C23U U26A U43C C71A] | 0.05 |
| UAACAGGGGGCCACAGCAGAAGUGUACACGUCGCAGCCCCUGGCAGAUUCCGGUGAAUCUGCGAAUUCUGCUGUAUAUCUC [C23U U26A U43G U51C] | 0.14 |
| UAACAGGGGGCCACAGCAGAAGUGUACACGUCGCAGCCCCUGUCAGAUUCUGGUGAAUCUGCGAAUUCAGCUGUAUAUCUC [C23U U26A U69A] | 0.1 |
| UAACAGGGGGCCACAGCAGAAGUGUCCACGUCGCGGCCCCUGUCAGAUUUUGGUGAAUCUGCGAACUCUGCUGUAUAUCUC [C23U U26C A35G C50U U66C] | 0.09 |
| UAACAGGGGGCCACAGCAGAAGUGUCCACGUCGCGGCCCCUGUCAGAUUCUAGCGAAUUUGCGAAUUCUGCUGUAUAUCUC [C23U U26C A35G G52A U54C C59U] | 0.09 |
| UAACAGGGGGCCACAGCAGAAGUGUCCACGUCGCAGCCCCUGUCUGAUUCUGGUGAAUCCGCGAAUUCUGCUGCAUAUCUC [C23U U26C A45U U60C U74C] | 0.07 |
| UAACAGGGGGCCACAGCAGAAGUGUCCACGUCGCAGCCCCUGUCAGAUUCUGGUGGAUCUGCGAAUUCCGCUGUAUAUCUC [C23U U26C A56G U69C] | 0.36 |
| UAACAGGGGGCCACAGCAGAAGUGUCCACGUCGCAGCUCCUGUCAGAUUCUGGUGAAUCUGCGAAUUCUGCUGUAUAUCUC [C23U U26C C38U] | 0.19 |
| UAACAGGGGGCCACAGCAGAAGUGUCCACACCGCAGCCCCUGUCAGAUUCUGGUGAAUCUGCGAAUUCCGCUGUAUAUCUC [C23U U26C G30A U31C U69C] | 0.07 |
| UAACAGGGGGCCACAGCAGAAGUGUCCACGUCGCAACCCCUGUCAGAUUCUGGUGAAUCUGCGAACUCUGCCGUAUAUCUU [C23U U26C G36A U66C U72C C81U] | 0.05 |
| UAACAGGGGGCCACAGCAGAAGUGUCCACGUCGCAGCCCCUGUCAGAUUCCGGUGAAUCUGCGAACUCAGCUGUAUAUCGC [C23U U26C U51C U66C U69A U80G] | 0.13 |
| UAACAGGGGGCCACAGCAGAAGUGUUCACGACGCAGCCCCUGUCAGAUUCUGGUGAAUCUGCGAAUUCCGCUGUAUAUCUC [C23U U31A U69C] | 0.07 |
| UAACAGGGGGCCACAGCAGAAGUGUUCACGGCGCAGCCCCUGUCAGAUUCCGGUGAAUCUGCGAACUCUGCUGUAUAUCAC [C23U U31G U51C U66C U80A] | 0.06 |
| UAACAGGGGGCCACAGCAGAAGUGUUCACGUCGCAGCCCCAGUCAGAUUCUGGUGAAUCUGCCAAUUCUGCUGUAUAUCUC [C23U U41A G63C] | 0.16 |
